Laboratory results: PubChem BioAssay AID686978 (National Center for Advancing Translational Sciences (NCATS), 2013)
Out of some 420,000 compounds screened, about 64,000 (15%) were called active. The inconclusive results got no clear call from the source; some entries with a clear call stand among them for comparison. The call rests on the fitted dose curve; in most records, active means well fitted inhibition curve with a large enough effect; inconclusive means small, poorly fitted or top-dose-only effect; inactive means flat fitted curve, though single readings scatter. Potencies of inconclusive entries are left out as doubtful fits.
On the % scale 0 is the no-effect control and ±100 the full control effect; potency means the concentration at half of the fitted maximal effect; tags describe the fitted curve by direction and shape.

Experiment: qHTS for Inhibitors of human tyrosyl-DNA phosphodiesterase 1 (TDP1): qHTS in cells in absence of CPT; further: nearly all actives have a fitted effect of over 55% in size
Settings: DT40 Tdp1-/- hTDP1 cells, no CPT, ATP luminescence, 48 h; activity change, negative = growth inhibition: at 46.2 µM (top of the series) unless noted
Method in brief: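 Cells were dispensed at 400 per well, compounds added by pin tool, plates incubated ≥48 hr at 37 °C, then CellTiter-Glo added for 30 min at room temperature before luminescence reading. Line: DT40 Tdp1-/- complemented with hTDP1; camptothecin omitted.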
With `C=CCOC(=O)COc1ccc2c(C)c(C)c(=O)oc2c1` the activity change, negative = growth inhibition was inconclusive: -31.6% [inhibitor].
In the case of `CC(C)(C)OC(=O)NCCCCCNC(=O)c1ncn(Cc2ccccc2)c1C(=O)NCCCCCNC(=O)OC(C)(C)C`, the Potency is reported as active: 16.4 µM.
With `CC1CCc2nc(N)c(C#N)c(-c3cccn3C)c2C1` (configuration not stated) the activity change, negative = growth inhibition was inconclusive: -23.7% [inhibitor].
In the case of `O=C(NC12CC3CC(CC(C3)C1)C2)N1CCN(C(=O)c2ccco2)CC1`, the “activity change, negative = growth inhibition” value is reported as inactive: -17.6%.
For `O=C(Nc1ccc(F)cc1)C1CCCN(S(=O)(=O)c2cccc3cccnc23)C1` (configuration not stated), the Potency was inconclusive [inhibitor, single point].
In the case of `C1=C[C@@H]2CCN(Cc3ccccc3)Cc3cccc(c32)C1`, the Potency is reported as inconclusive [inhibitor, single point].
For `O=C(CC(=O)N/N=C/c1ccc(F)cc1)N/N=C/c1ccc(F)cc1`, the Potency was inconclusive [inhibitor, partial curve].
In the case of `CCc1ccc(OC2(C)CCN(Cc3ccc4c(c3)OCCO4)C2)cc1` (configuration not stated), the Potency is reported as inconclusive [inhibitor, single point].
In the case of `Cc1cccnc1Sc1c([N+](=O)[O-])ncn1C`, the “activity change, negative = growth inhibition” value is reported as inactive: 1.63%.
For `Cc1cc(C)c2nc3nc(C)c(C)cc3c(N)c2c1`, the Potency was active: 6.51 µM.
For `O=C(CSc1nnc(-c2ccccc2F)o1)N1CCCC1`, the “activity change, negative = growth inhibition” value was inactive: -6.59%.
For `CCCCNC(=O)[C@H]1N2C(=O)c3c(ccc(OC)c3OC)C2SC1(C)C` (some centres not stated), the “activity change, negative = growth inhibition” value was inactive: -24%.
For `OC(c1cccc(Cl)c1)c1ncc(-c2ccc(C(F)(F)F)cc2)[nH]1` (configuration not stated), the Potency was inconclusive [inhibitor, single point].
With `Cc1cccc(C(=O)NCC(=O)NCCCSc2ccccc2)c1` the Potency was inconclusive [inhibitor, single point].
In the case of `O=C(Nc1nc2ccc(F)cc2s1)C1=NN(c2ccccc2)C(=O)CC1`, the “activity change, negative = growth inhibition” value is reported as inactive: 1.75%.
With `CC(=O)Nc1cccc(-n2cc3c(c2-c2ccccc2Cl)c(=O)n(C)c(=O)n3C)c1` the Potency was inconclusive [inhibitor, single point].
For `CN(C)Cc1ccccc1-c1nc(NC2CCNCC2)c2ccccc2n1`, the Potency was active: 0.651 µM.
In the case of `CCC(C)(C)n1nnnc1CN(Cc1ccco1)Cc1cc2cc3c(cc2[nH]c1=O)OCO3`, the Potency is reported as active: 16.4 µM.
For `COc1ccccc1CC(=O)NC1CCN(Cc2ccccc2)CC1`, the “activity change, negative = growth inhibition” value was inactive: 0.307%.
For `CC(Nc1c([N+](=O)[O-])c(=O)oc2ccccc12)C(Cl)c1ccccc1` (configuration not stated), the Potency was active: 23.1 µM.
With `CNC[C@H](CC1CCCCC1)NC[C@H](CO)NCC1(c2ccccc2)CC1` the Potency was active: 20.6 µM.
For `CC(C)OC(=O)Nc1ccc(Oc2c(F)c(F)c(F)c(F)c2F)cc1`, the Potency was inconclusive [inhibitor, single point].
